Experimental findings from PubChem BioAssay AID1159614 (National Center for Advancing Translational Sciences (NCATS), 2016) are described below.

Each structure is given as a SMILES string. In all, about 45,000 compounds went through this assay and about 65 (0.1%) were called active. The call rests on the fitted dose curve; in most records, active means well fitted activation curve with a large enough effect; inconclusive means small, poorly fitted or top-dose-only effect; inactive means no such curve, though single readings can be large or run the other way. The list shows a part of the results.

The test has as its target Galactocerebrosidase (Homo sapiens) (UniProt P54803). Description: A Novel Cell-Based Assay to Identify Small Molecules for B -Galactocerebrosidase. Further: 0% is about no effect; nearly all actives have a fitted effect of over 65% in size. As to conditions: 145M-Twi-hGALC-G270D cells (Twitcher mouse brain line with human GALC G270D), HMU-beta-Gal fluorescence, 48 h; series mostly up to 57.5 µM; activation: at the top concentration. The method, boiled down: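 Brain-derived Twitcher mouse 145M-Twi cells stably expressing human GALC-G270D or wild-type GALC, treated live, then residual GALC activity read by fluorescence of HMU-b-Gal substrate (0.1 mM final) in citrate-phosphate buffer pH 5.2 with sodium taurocholate. Signal increase indicates enhancement.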
Chain of UniProt P54803 (P54803 whole entry, looked up): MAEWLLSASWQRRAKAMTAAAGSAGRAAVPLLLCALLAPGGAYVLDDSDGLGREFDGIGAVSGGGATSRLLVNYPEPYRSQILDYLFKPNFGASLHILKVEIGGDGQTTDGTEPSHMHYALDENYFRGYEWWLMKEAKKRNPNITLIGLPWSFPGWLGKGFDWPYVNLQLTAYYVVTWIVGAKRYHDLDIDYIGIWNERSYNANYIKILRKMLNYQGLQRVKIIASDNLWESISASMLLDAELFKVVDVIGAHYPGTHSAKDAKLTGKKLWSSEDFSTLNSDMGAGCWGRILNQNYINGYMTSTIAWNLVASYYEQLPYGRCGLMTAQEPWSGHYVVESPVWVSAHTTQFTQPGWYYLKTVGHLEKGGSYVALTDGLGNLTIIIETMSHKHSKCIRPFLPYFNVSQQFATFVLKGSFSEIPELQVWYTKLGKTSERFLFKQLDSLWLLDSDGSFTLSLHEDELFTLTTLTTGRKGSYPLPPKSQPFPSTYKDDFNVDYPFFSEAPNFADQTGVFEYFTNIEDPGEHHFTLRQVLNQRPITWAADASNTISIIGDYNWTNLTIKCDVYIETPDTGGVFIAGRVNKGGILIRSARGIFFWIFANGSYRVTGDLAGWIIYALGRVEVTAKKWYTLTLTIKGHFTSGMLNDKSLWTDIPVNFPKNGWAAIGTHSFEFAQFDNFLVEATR
For the compound `COc1ccc(-c2nc3ccccc3n3c(-c4ccccc4)c4c(=O)n(C)c(=O)n(C)c4c23)cc1`, the “activation” value is inactive: -22.1%. With `CC(C)c1ccc(NC(=O)CSC2=Nc3ccccc3C3=NC(CC(=O)NC4CCCCC4)C(=O)N23)cc1` (stereo not given), the “activation” value is inactive: -44.4%. Regarding `Cc1ccc(C(=O)N2CCC(C(N)=O)CC2)cc1NC(=O)c1nsc2ccccc12`, the “activation” value was inactive: -8.77%. Take `CCC(=O)Nc1ccc(O)cc1`: the “activation” value is inactive: -18.3%.

As to `COc1ccc(C2CC(=O)N(CC(=O)Nc3cccc(C)c3C)c3ccccc3S2)cc1OC` (stereo not given), the “activation” value is inactive: -8.71%.

For `CN1CCN(C2Cc3ccccc3Sc3ccc(Cl)cc32)CC1` (stereo not given), the “activation” value is inactive: 4.94%. On to `COc1ccccc1CNC(=O)CCCn1c(=O)c2ccccc2n(Cc2ccc(C)cc2)c1=O`, for which the “activation” value is inactive: -22.4%. To `COc1ccc(CN2CCCN(CC(=O)Nc3ccc4c(c3)OCCO4)S2(=O)=O)cc1` belongs inactive: -14.3%; to `Cc1ccc(-c2noc(-c3nnn(CC(=O)Nc4cc(Cl)ccc4C)c3N)n2)cc1`, inactive: -12.3%; to `CC1CCN(S(=O)(=O)c2cc(C(=O)N3CCN(c4ccccc4F)CC3)n(C)c2)CC1`, inactive: -7.5%. Turning to `Cc1nn(C)c2c1c(C(F)(F)F)cc(=O)n2CC(=O)N1CCC(C)CC1`, the “activation” value was inactive: 2.97%. `Cc1ccc(CSc2nc3cccnc3n2Cc2ccc(C(=O)NCCc3cccs3)cc2)cc1`: the “activation” value was inactive: -33.5%. With `COc1ccc(N(CC(=O)NCCc2ccc(Cl)cc2)S(=O)(=O)c2c(C)nn(C)c2C)cc1`, the “activation” value was inactive: -12.8%. With `CCOC(=O)C1CCN(C(=O)c2nn(-c3ccc(OC)cc3)c(=O)c3c2c2ccccc2n3C)CC1`, the “activation” value is inactive: -12%. Take `Cc1ccc(Sc2ccc(N3CCCC(C(=O)Nc4ccc(F)cc4F)C3)nn2)cc1` (stereo not given): the “activation” value is inactive: -15.8%. Regarding `CCCCn1c(SCC(=O)NCc2ccc(C)cc2)nc2c(sc3ccccc32)c1=O`, the “activation” value was inactive: 12.6%.

As for `COCCN1CCN(Cc2ccc(C(=O)NC(C)C)cc2)C(=O)C1=O`, the “activation” value is inactive: -19.4%. For `COc1ccc(NC(=O)c2oc3ccccc3c2NC(=O)Cc2cccs2)c(OC)c1`, the “activation” value is inactive: -3.93%. For `COc1ccc(CNC(=O)C(C)n2c(=O)cc(C)c3c(C)nn(-c4ccccc4)c32)cc1` (stereo not given), the “activation” value was inactive: -21.9%. For `CCC1CN(C(=O)C2CCN(S(=O)(=O)c3c(C)noc3/C=C/c3ccccc3F)CC2)c2cc(C)ccc2O1` (stereo not given), the “activation” value is inactive: -1.53%. Take `CCN1CCN(Cc2c(O)ccc3cc(-c4ccc(OC)cc4)c(=O)oc23)CC1`: the “activation” value was inactive: -28.3%. To `COc1ccc(C)cc1Nc1nc(N)c2cc(OC)c(OC)cc2n1` belongs inactive: -5.09%.

As for `CC(=O)c1cccc(NC(=O)c2nc(-c3ccccc3)n(-c3ccccc3C)n2)c1`, the “activation” value is inactive: -26.9%. To `COc1ccc(C2c3cccn3CCN2S(=O)(=O)c2ccc([N+](=O)[O-])cc2)cc1` (stereo not given) belongs inactive: -16.3%; to `CCc1cccc(NC(=O)C2CCN(S(=O)(=O)c3cccc(-c4noc(C)n4)c3)CC2)c1`, inactive: 1.68%. As for `Cc1nc2c(c(C)nn2-c2ccccc2)c(C)c1CCC(=O)NCc1ccccc1`, the “activation” value is inactive: -1.09%. As to `NS(=O)(=O)c1cc2c(cc1Cl)NC(C(Cl)Cl)NS2(=O)=O` (stereo not given), the “activation” value was inactive: -10.8%. To `CCN1CCN(c2cc(C)c3cc(NC(=O)c4ccc(OC)c(OC)c4)ccc3n2)CC1` belongs inactive: -14%.

With `Cc1ccn2cc(-c3ccc(C)c(NS(=O)(=O)c4ccc(Cl)cc4)c3)nc2c1`, the “activation” value was inactive: -17.8%. For `Cc1nnc(N2CCCC(C(=O)NCCc3ccccc3)C2)c2nn(-c3ccccc3)c(C)c12` (stereo not given), the “activation” value was inactive: 1.73%. On to `Cc1ccc(S(=O)(=O)c2nc(-c3cccc(Cl)c3)oc2NCc2ccccc2)cc1`, for which the “activation” value was inactive: -17.2%.

On to `CCOC(=O)Cn1c(=O)oc2cc(S(=O)(=O)N3CCN(c4cc(C)ccc4C)CC3)ccc21`, for which the “activation” value was inactive: -22.9%. Take `CN(C)CCNC(=O)c1ccc2c(c1)N(Cc1c(F)cccc1Cl)C(=O)c1ccccc1S2`: the “activation” value was inactive: -9.08%. Consider `CN[C@@H]1[C@H](O)[C@H](NC)[C@H]2O[C@@]3(O)C(=O)C[C@@H](C)O[C@H]3O[C@@H]2[C@H]1O`, for which the “activation” value was inactive: -15.8%. With `COCCCNC(=O)c1ccc2nc(CCc3ccccc3)oc2c1` the figure was inactive: -7.58%. To `CCC(=O)N1CCc2cc(S(=O)(=O)NC(C(=O)Nc3cc(OC)cc(OC)c3)C(C)C)ccc21` (stereo not given) belongs inactive: -17.4%. On to `CCOC(=O)c1c(NC(=O)c2ccc(C)c(C)c2)sc2c1CCCCC2`, for which the “activation” value was inactive: -1.82%. Take `CCc1ccc(C(=O)NC2=NC(c3ccccc3F)CC(=O)N2)cc1` (stereo not given): the “activation” value is inactive: -5.9%. With `Cn1cnc(S(=O)(=O)N2CCCC(C(=O)Nc3ccc(OC(F)(F)F)cc3)C2)c1` (stereo not given) the figure was inactive: -3.11%. To `O=C(Nc1ccccc1Br)N1CCC(CN2CCCC2)CC1` belongs inactive: -16.9%; to `Cc1ccc(OCC(=O)Nc2ccc(-c3nc4ccccc4o3)cc2)c(C)c1`, inactive: -10.2%; to `CCOc1ccc(OCC)c(NS(=O)(=O)c2ccc3c(c2)CCN3C(=O)C2CCC2)c1`, inactive: -6.8%. To `O=C(Cc1c(C(=O)O)[nH]c2ccccc12)Nc1cccc(C(F)(F)F)c1` belongs inactive: 21.7%. For the compound `Cc1c(Cl)ccc2sc(N3CCN(C(=O)CS(=O)(=O)c4ccccc4)CC3)nc12`, the “activation” value is inactive: -15%.

Regarding `CCCN1CCN(CCCNC(=O)c2c(C)nn(-c3ccc(F)cc3)c2-n2cccc2)CC1`, the “activation” value was inactive: 0.705%.

As to `CCOc1ccc(CNC(=O)Cn2c(=O)c3cccn3c3ccccc32)cc1`, the “activation” value is inactive: 3.37%. With `COc1cccc(CNC(=O)CN2C(=O)CCn3nc(-c4cn(C)c5ccccc45)cc32)c1OC`, the “activation” value was inactive: -17.5%. Regarding `COc1cc(OC)cc(C(=O)Nc2ccc(S(=O)(=O)Nc3onc(C)c3C)cc2)c1`, the “activation” value was inactive: -20.4%.

Consider `Cc1ccc(-n2c3c(cc(-c4nc(-c5ccc(Cl)cc5)cs4)c2=O)C(=O)CC(C)(C)C3)cc1`, for which the “activation” value is inactive: -14.2%. As to `O=C(Cn1nc(C(F)(F)F)c2c1CCCC2)Nc1ccc(Cl)cc1`, the “activation” value was inactive: -7.35%.

For `CCOC(=O)c1c(C)[nH]c(CCC(=O)Nc2cc(C)cc(C)c2)c1C`, the “activation” value is inactive: 2.29%.

With `O=C(NCCc1ccccc1)c1ccc(CSc2nc3ccncc3n2Cc2ccccc2)cc1`, the “activation” value was inactive: -8.61%. With `COc1ccc(NC(=O)Cn2ncc3c([nH]c4ccccc43)c2=O)cc1Cl` the figure was inactive: -7.43%; with `CCN(CC)CCCNC(=O)c1cn(C)c2ccc(S(=O)(=O)N3CCOCC3)cc2c1=O`, inactive: -14.9%; with `Cc1ccc(NC(=O)CSc2nc(C)cc(C)c2C(=O)Nc2cccc(C)c2)cc1`, inactive: -9.44%. As to `CCc1ccc(N2C(=O)CSC23C(=O)N(Cc2cccc(F)c2)c2ccccc23)cc1` (stereo not given), the “activation” value was inactive: -45.2%. On to `CCOC(=O)c1cccc(NC(=O)c2cc(-c3ccc(Cl)s3)nc3ccccc23)c1`, for which the “activation” value is inactive: -12.3%. `COc1ccc(OC(C)C(=O)NCc2nc(-c3ccc(Cl)cc3)no2)cc1` (stereo not given): the “activation” value was inactive: -3.43%.

As for `COc1ccc(NC(=O)CNS(=O)(=O)c2cccs2)c(OC)c1`, the “activation” value is inactive: -17.7%. For the compound `CCOC(=O)c1ccc2ncc(C(=O)OCC)c(Nc3ccc(C)c(Br)c3)c2c1`, the “activation” value is inactive: -14%.
